This test deals with liver mRNA expression. The test can be described thus: Rat liver gene expression on Rat Toxicology LifeArrays, distinction metric. To be noted: for Distinctiveness: vs. vehicle in males, negative = upregulation.
Where [1] appears, read: clone 700146486 Rat mRNA for acyl-CoA hydrolase.
Setting [2] is: clone 700187344 Rat pyruvate dehydrogenase kinase isoenzyme 4 (PDK4) mRNA.
Setting [3] is: clone 700199767 Rat mitochondrial 3-hydroxy-3-methylglutaryl-CoA synthase mRNA.
[4] abbreviates: clone 700247611 Rat Wistar peroxisomal enoyl hydratase-like protein (PXEL) mRNA.
[5] abbreviates: clone 700296634 Rat cytochrome P450 mRNA.
[6] abbreviates: clone 700296865 Rat cytochrome P450 mRNA.
Where [7] appears, read: clone 700397284 Rat mRNA for mitochondrial long-chain 3-ketoacyl-CoA thiolase β-subunit of mitochondrial trifunctional protein.
The mark [8] stands for this setting: clone 700481210 Rat mRNA for mitochondrial 3-2-trans-enoyl-CoA isomerase.
Where [9] appears, read: clone 700505778 Rat liver fatty acid binding protein (FABP) mRNA.
Setting [10] is: clone 700628567 Rat mRNA for 2,4-dienoyl-CoA reductase precursor.
Where [11] appears, read: clone 700935113 Rat peroxisomal enoyl-CoA: hydrotase-3-hydroxyacyl-CoA bifunctional enzyme mRNA.
Setting [12] is: clone 700935253 Rat mRNA for mitochondrial isoform of cytochrome b5.
Setting [13] is: clone 701196893 Rat Cyp4a locus, encoding cytochrome P450 (IVA3) mRNA.
Setting [14] is: clone 701197528 Rat mRNA for Sulfotransferase K2.
[15] abbreviates: clone 701444552 Rat cytochrome P450-LA-omega (lauric acid omega-hydroxylase) mRNA.
Where [16] appears, read: clone 701466373 Rat cytochrome P450-LA-omega (lauric acid omega-hydroxylase) mRNA.
Setting [17] is: clone 701466951 Rat mRNA for acyl-CoA hydrolase.
The mark [18] stands for this setting: clone 701469162 Rat peroxisomal enoyl-CoA: hydrotase-3-hydroxyacyl-CoA bifunctional enzyme mRNA.
Setting [19] is: clone 701507855 Rat mRNA for cytochrome P452.
The mark [20] stands for this setting: clone 701512110 Rat peroxisomal membrane protein Pmp26p (Peroxin-11).
[21] abbreviates: clone 701531239 Rat carnitine octanoyltransferase mRNA.
Setting [22] is: clone 701606788 Mouse peroxisomal long chain acyl-CoA thioesterase Ib (Ptelb) gene.
Setting [23] is: clone 701646795 Rat acyl-CoA oxidase mRNA.
Setting [24] is: clone 701826047 hypothetical protein Rv3224.
The mark [25] stands for this setting: clone 701880740 Unnamed protein product.

Consider 4 compounds from patent US20030180808A1, “Drug signatures” (priority 2002, published 2003).

Take `CCOC(=O)C(C)(C)Oc1ccc(Cl)cc1` [Clofibrate, clofibrate]: the Distinctiveness by setting is: under setting [1], −2.20; under setting [2], −16.42; under setting [3], −9.90; under setting [4], −10.02; under setting [5], −15.64; under setting [6], −17.07. The Distinctiveness by setting is: under setting [7], −4.48; under setting [8], −11.57; under setting [9], −0.23; under setting [10], −2.16; under setting [11], −4.82; under setting [12], −4.98. The Distinctiveness under setting [13] is on record as −15.66; the Distinctiveness under setting [14] is on record as −29.46; the Distinctiveness under setting [15] was −15.09; the Distinctiveness under setting [16] was −23.12; the Distinctiveness under setting [17] is on record as −7.60; the Distinctiveness under setting [18] is listed as −5.72. Further, the Distinctiveness by setting is: under setting [19], −11.54; under setting [20], −8.16; (clone 701512411 Incyte EST) −6.28; under setting [21], −7.50; under setting [22], −6.91; under setting [23], −8.02. The Distinctiveness is listed as −5.56 under setting [24] and −1.20 under setting [25].

Regarding `CC(C)OC(=O)C(C)(C)Oc1ccc(C(=O)c2ccc(Cl)cc2)cc1` [Fenofibrate], the Distinctiveness reads like this: under setting [1], −10.45; under setting [2], −13.16; under setting [3], −8.72; under setting [4], −16.48; under setting [5], −19.23; under setting [6], −25.96. In addition, the Distinctiveness is recorded as −14.54 under setting [7]; −19.18 under setting [8]; −14.06 under setting [9]; −8.98 under setting [10]; −10.93 under setting [11]; −13.15 under setting [12]. The Distinctiveness by setting is: under setting [13], −21.68; under setting [14], −24.19; under setting [15], −22.11; under setting [16], −24.45; under setting [17], −9.93; under setting [18], −7.82. The Distinctiveness under setting [19] is listed as −32.35; the Distinctiveness under setting [20] is on record as −10.83; the Distinctiveness (clone 701512411 Incyte EST) is listed as -11.10; the Distinctiveness under setting [21] is recorded as −18.56; the Distinctiveness under setting [22] is −7.74; the Distinctiveness under setting [23] is −10.07. Also, the Distinctiveness under setting [24] is on record as −12.66 and the Distinctiveness under setting [25] is given as −17.88.

Regarding `Cc1ccc(C)c(OCCCC(C)(C)C(=O)O)c1` [Gemfibrozil, gemfibrozil], the “number of genes induced that were not induced by other PPARα agonists” value (rat liver, 8 of the 13 involved in cholesterol and fatty acid biosynthesis) is 13 genes.

As to `CC(C)(C)CC(C)(C)c1ccc(O)cc1` [OP], the Distinctiveness runs as follows: under setting [1], −2.66; under setting [2], −0.19; under setting [3], 1.97; under setting [4], 8.18; under setting [7], 1.46; under setting [8], 2.16. Also, the Distinctiveness was 3.92 under setting [9]; 2.72 under setting [10]; 1.40 under setting [11]; 1.37 under setting [12]; 1.16 under setting [14]; −1.06 under setting [17]. Besides, the Distinctiveness reads like this: under setting [18], 1.22; under setting [19], 1.43; under setting [20], 1.31; (clone 701512411 Incyte EST) 0.96; under setting [21], 3.56; under setting [22], 1.91. Moreover, the Distinctiveness runs as follows: under setting [23], 0.81; under setting [24], 1.36; under setting [25], 3.42.
